Measurements taken from ChEMBL document CHEMBL1157539, “Thousands of chemical starting points for antimalarial lead identification” (Nature, 2010).
Several values for one entry are separate records, joined by “and”; a condition that tells them apart may be missing. Equal entries are not always repeated. In all, about 13,000 compounds were measured (“IFI”: median about 4, highest 2% from about 17 on). This is one part of the list.

Assay: GSK_TCMDC: Inhibition Frequency Index (IFI). The number of non-kinase HTS assays where a compound showed > 50 % inhibition, expressed as a percentage of the number of such assays in which the compound was tested (-0 is zero)
Type: functional

Going from `O=C(c1ccc(-c2ccc(-c3nc4ccccc4[nH]3)s2)cc1)N1CCCCC1CN1CCC(O)C1` (stereo not drawn) to `OCC1CCN(Cc2cccc(-c3ccc(-c4nc5cc(C(F)(F)F)ccc5[nH]4)s3)c2)CC1`, the IFI falls from 4.42% to 2%.

Going from `CCn1c(SC)nnc1C1CCCN(CC(=O)Nc2nc3ccc(OC)cc3s2)C1` (stereo not drawn) to `COc1ccc2nccc([C@@H](O)CN3CCC(NCc4cc5cc(C)ccc5s4)CC3)c2c1`, the IFI rises from 1.79% to 2.16%.

First: CC(C)C[C@@H](C(=O)Nc1ccc(Cc2ccc(NC(=O)[C@H](CC(C)C)N(C)C(=O)OC(C)(C)C)cc2)cc1)N(C)C(=O)OC(C)(C)C
Second: CCCCOC(=O)c1ccc(NC(=O)Nc2ccc(Cn3ncc(N4CCCNCC4)c(Cl)c3=O)cc2)cc1
The IFI of the first is lower: 2.13% for the first, 5.97% for the second.

Compared with `CCCC(C)Nc1nc(C)cc(NCCC(=O)Nc2ccc(OC)cc2)n1` (stereo not drawn), `Cc1cc(N[C@@H](Cc2ccccc2)C(=O)Nc2ccccc2)nc(NCCc2ccccc2)n1` is higher in IFI: 2.27% for the first, 12.2% for the second.

First: O=C(Cn1c(SCc2cccc(F)c2F)cc(=O)c2ccccc21)N(CCN1CCCCC1)Cc1ccc(-c2ccc(C(F)(F)F)cc2)cc1
Second: FC(F)(F)c1ccc2[nH]c(-c3ccc(-c4cccc(CN5CCCCC5)c4)cc3)nc2c1
The IFI of the first is higher: 7.19% for the first, 2.82% for the second.

First: O=C(Nc1cccc(-c2cccc(-c3nc4cc(F)ccc4[nH]3)c2)c1)c1c[nH]cn1
Second: CC(=O)Nc1cccc(C(=O)Nc2ccc(-c3cccc(-c4nc5cccc(C)c5[nH]4)c3)cc2)c1
The IFI of the first is lower: 3.74% for the first, 5.45% for the second.

Going from `N#Cc1cccc(C(=O)Nc2cccc(-c3ccc(C(=O)Nc4cccnc4)cc3)c2)c1` to `N#Cc1cccc(C(=O)Nc2cccc(-c3ccc(C(=O)NCCCN4CCOCC4)cc3)c2)c1`, the IFI falls from 7.46% to 4.55%.

First: CC(C)(C(=O)NCCC1CCN(CCCCCNC(=O)/C=C/c2ccc(Cl)c(Cl)c2)CC1)c1ccc(Cl)cc1
Second: O=C(/C=C/c1ccc(Cl)c(Cl)c1)NCCCCCN1CCC(c2c[nH]c3c(-c4ccccc4)cccc23)CC1
The IFI of the first is higher: 8.97% for the first, 8.09% for the second.

First: Cc1cccc2nc(-c3ccc(-c4cccc(CNC5CCN(C)CC5)c4)s3)[nH]c12
Second: O=C(NC1CCN(Cc2ccccc2)CC1)c1ccc(-c2nc3cc4ccccc4cc3[nH]2)s1
The IFI of the first is higher: 4.76% for the first, 2.92% for the second.

First: Cc1cc(N(C)CCCN(C)C)nc(Nc2ccc(Br)cc2)n1
Second: Cc1ccc2nc(C)cc(NC(=O)Nc3ccc(N(C)C)cc3)c2c1
The IFI of the first is lower: -0% for the first, 3.68% for the second.

Going from `CC(C)(CN)c1nc(-c2ccc(Cl)c(O)c2)c(-c2ccnc(N)n2)[nH]1` to `CCc1cc2c3c(N)nc(N)nc3ccc2n1C(C)(C)C`, the IFI rises from 2.05% to 7.26%.

Compared with `CC(=O)N[C@@H]1c2cc(C(C)=O)ccc2OC(C)(C)[C@@H]1O`, `CC(C)=CC1C(C(=O)n2c(=N)[nH]c3ccccc32)C1(C)C` (stereo not drawn) is higher in IFI: -0% for the first, 2.29% for the second.

Compared with `O=C(NC1CCCC1)c1ccc(N2CCC(NCc3cccc(C(F)(F)F)c3)CC2)cc1`, `O=C(NC1CCN(Cc2cccc(C(F)(F)F)c2)CC1)c1ccc(-c2cccc(C(F)(F)F)c2)s1` is higher in IFI: 5.26% for the first, 12.7% for the second.

First: CCCc1ccc(NC(=O)c2cccc(CN3CCCN(Cc4cccc(O)c4)CC3)c2)cc1
Second: CCCCN1CCN(Cc2cccc(NC(=O)c3ccc(Cl)c(Cl)c3)c2)CC1
The IFI of the first is higher: 4.9% for the first, 3.36% for the second.

Going from `CC1CNC(c2ccc(NC(=O)c3ccc(C(=O)Nc4ccc(C5=NC(C)CN5)cc4)cc3)cc2)=N1` (stereo not drawn) to `Nc1nccc2ccc(-c3ccc(NC(=O)Nc4cc(C(F)(F)F)ccc4F)cc3)cc12`, the IFI rises from 1.47% to 20.2%.

Going from `CC(C)CCN1CCCN(Cc2ccc(C(=O)NCc3ccc(Cl)cc3)cc2)CC1` to `O=C(Nc1ccc(CN2CCOCC2)cc1)c1ccc(-c2ccc(Cl)cc2)o1`, the IFI rises from 1.6% to 2.78%.

First: COc1ccc2nccc([C@@H](O)CN3CCC(NCc4cc5ccccc5[nH]4)CC3)c2n1
Second: COc1ccc2nccc([C@@H](O)CN3CCC(NCc4cc5ccc(C#N)cc5[nH]4)CC3)c2c1
The IFI of the first is lower: 2.88% for the first, 3.76% for the second.

Going from `Cc1c(CNCCCNc2cc(=O)c3ccccc3[nH]2)sc(C(F)=C(F)F)c1Br` to `CCc1ccc(CNCC(CCNc2cc(=O)c3ccccc3[nH]2)NCc2cc(Br)cc(Br)c2)o1` (stereo not drawn), the IFI falls from 10.9% to 8.03%.

Compared with `O=[N+]([O-])c1ccc2c(-c3ccccc3)c(-c3ccccc3)n(O)c2c1`, `O=C(Nc1cccc(OC2CCN(Cc3ccccc3)CC2)c1)Nc1cccc([N+](=O)[O-])c1` is higher in IFI: 0.85% for the first, 2.92% for the second.

Going from `COc1cc(Nc2nccc(NCC(O)c3ccc(C(F)(F)F)cc3)n2)cc(OC)c1OC` (stereo not drawn) to `CC(CN(C)C)C(=O)Nc1ccc(-c2ccc(-c3nc4cc(C(F)(F)F)ccc4[nH]3)cc2)cc1` (stereo not drawn), the IFI falls from 8.33% to 3.6%.

Going from `CCCC(C)NC(=O)[C@H](CC1CCCCC1)NC(=O)c1ccc(O)c(-c2ccc(OC)cc2)c1` (stereo partly drawn) to `CC(C)C[C@H](Nc1ccnc(NCC2CCCCC2)n1)C(=O)NCCOc1ccccc1`, the IFI rises from 1.4% to 13%.

First: O=C(/C=C/c1ccc2ccccc2c1)NCC1(c2ccc(-c3ccccc3)cc2)CCOCC1
Second: c1ccc(COc2ccccc2COc2ccccc2-c2ccc3cccnc3n2)cc1
The IFI of the first is lower: 1.64% for the first, 7.84% for the second.

Compared with `COc1ccc(N2CCN(c3nc(Nc4ccc(NC(C)=O)cc4)nc(N4CCCC4)n3)CC2)cc1`, `COc1cccc(C(=O)Nc2ccc(Oc3ccc(Cl)cc3)cc2)c1` is higher in IFI: 2.84% for the first, 4.93% for the second.

Going from `CC(C)C[C@H](Nc1ccnc(NCC2CCCCC2)n1)C(=O)Nc1ccccc1` to `Cc1cc(N[C@@H](Cc2ccccc2)C(=O)NC2CCCC2)nc(NCc2ccccc2C)n1`, the IFI falls from 13.3% to 4.88%.

Compared with `CC(C)c1ncc(-c2ccncc2)c(C2CCC(CNC(=O)c3cccnc3)CC2)n1` (stereo not drawn), `Cc1ccc(NC(=O)c2ccc3ncccc3c2)cc1OC1CCN(C(C)C)C1` (stereo not drawn) is higher in IFI: 0% for the first, 1.52% for the second.

Going from `CC[C@H](C)CNC(=O)c1cncc(-c2ccc(CNC3Cc4ccccc4C3)cc2)c1` to `CCN(CC)CCOC(=O)c1ccc(NC(=O)c2cn(-c3ccccc3)nc2-c2cccs2)cc1`, the IFI falls from 6.45% to 1.48%.

Going from `CCC(C)(C)C1CCc2nc(N)nc(N)c2C1` (stereo not drawn) to `CCC(C)C#Cc1c(C)nc(N)nc1N` (stereo not drawn), the IFI falls from 4.08% to 2.22%.

First: Cc1nc2sccn2c1C(=O)NCCc1ccccc1Cl
Second: COc1ccccc1CCCON1C(=N)N=C(N)NC1(C)C
The IFI of the first is lower: 2.38% for the first, 6.02% for the second.

Going from `COc1cccc2[nH]c(NCCCNCc3cc(Br)cc(Br)c3)nc12` to `C#CCNCc1ccc(-c2ccc(-c3nc4cc(C(F)(F)F)ccc4[nH]3)s2)cc1`, the IFI rises from 2.99% to 8.82%.

Compared with `CCC(C)c1ccc(NC(=O)C(C)c2ccc([N+](=O)[O-])cc2)cc1` (stereo not drawn), `CCC(C)CN1CCN(c2ccc(NC(=O)c3cccs3)cc2)CC1C` (stereo not drawn) is lower in IFI: 23.7% for the first, 2.86% for the second.

Compared with `CCC[C@@H]([C@@H](CC1CCCCC1)C(=O)N[C@H](C(=O)Nc1nccs1)[C@H](C)O)N(O)C=O`, `CCc1cn2c3c(cc(C(=O)N[C@@H](Cc4ccccc4)[C@H](O)CNC4CCCC4)cc13)N(C)S(=O)(=O)CC2` is higher in IFI: 2.38% for the first, 2.92% for the second.

First: CCn1cc(C(=O)O)c(=O)c2cc(F)c(N3CCN(S(=O)(=O)c4ccc(N)cc4)CC3)cc21
Second: COc1ccc(Cl)cc1NC(=O)C(C)N1CCN(S(=O)(=O)c2ccccc2F)CC1 (stereo not drawn)
The IFI of the first is higher: 1.41% for the first, 0.78% for the second.

Going from `COc1ccc(S(=O)(=O)N(CCCN2CCN(C)CC2)Cc2csc(-c3ccc(CNCc4ccccc4)cc3)n2)cc1` to `COc1cccc(Nc2nc(C)cc(NC3CCN(Cc4ccccc4)CC3)n2)c1`, the IFI falls from 4.83% to 1.52%.

First: O=S(=O)(c1c(Cl)cc(Cl)cc1Cl)N1CCCCC(c2ccc(Cl)cc2)=N1
Second: O=C(NC1CCN(c2ccnc3cc(Cl)ccc23)C1)c1ccc(F)cc1F (stereo not drawn)
The IFI of the first is lower: 0.78% for the first, 1.54% for the second.

First: CC(C)c1cccc(C(NC(=O)[C@H]2Cc3ccccc3CN2C(=O)c2cccc(N3CCOCC3)c2)C2CCCC2)c1 (stereo partly drawn)
Second: O=C(Cc1ccccc1)NC(CCN1CCC(O)(c2cccc(C(F)(F)F)c2)CC1)c1ccc(Cl)c(Cl)c1 (stereo not drawn)
The IFI of the first is lower: 6.42% for the first, 7.48% for the second.

Compared with `COc1ccc2nccc([C@@H](O)CN3CCC(NCc4ccc5c(c4)NC(=O)C(C)S5)CC3)c2c1` (stereo partly drawn), `COc1ccc2nccc([C@@H](O)CN3CCC(NCc4ccc5cccc(O)c5n4)CC3)c2c1` is higher in IFI: 0.74% for the first, 8.76% for the second.

Compared with `COc1ccc2nccc([C@@H](O)CN3CCC(NCC(=O)Nc4cc(F)cc(F)c4)CC3)c2n1`, `COc1ccc2nccc(N3CCC(SCCNS(=O)(=O)c4ccc5c(c4)NC(=O)CS5)C3)c2n1` (stereo not drawn) is higher in IFI: 3.65% for the first, 8.87% for the second.

Going from `COc1cc2nc(N3CCC(CNC(=O)c4ccc(-c5ccc(-c6noc(C)n6)cc5)cc4)CC3)nc(N)c2cc1OC` to `CNC(=O)c1cc(Nc2nnc(-c3ccc(C)c(S(=O)(=O)NC4CCCCC4)c3)c3ccccc23)ccc1OC`, the IFI falls from 7.27% to 4.11%.

Going from `CN(C)CCOc1ccc2c(c1)CN(C)CC2c1ccccc1` (stereo not drawn) to `CNc1c2c(nc3ccc(NC(=O)CCCCCCc4ccccc4)cc13)CCCC2`, the IFI rises from -0% to 5.67%.

Compared with `N=C(NC1CC1)c1ccc2[nH]c(CCCCCc3nc4cc(C(=N)NC5CC5)ccc4[nH]3)nc2c1`, `CCCCOc1c(CNCCCCCCNCc2ccc3ccccc3c2OCCCC)ccc2ccccc12` is higher in IFI: -0% for the first, 16.6% for the second.

First: N=C(N)c1ccc(Nc2nccc(Nc3nc(-c4ccccc4)cs3)n2)cc1
Second: Cc1n[nH]c2ccc(-c3cc(OC[C@@H](N)Cc4ccccc4)cnc3-c3cc4ccccc4s3)cc12
The IFI of the first is lower: 5.22% for the first, 10.9% for the second.

First: Cc1cc2nc(N=C3NC4(c5ccccn5)NC(=Nc5nc6cc(C)c(C)cc6[nH]5)NC4(c4ccccn4)N3)[nH]c2cc1C (stereo not drawn)
Second: CCCCCCC(C)c1cc(O)c2c(c1)OC(C)(C)C=C2c1ccncc1 (stereo not drawn)
The IFI of the first is higher: 3.68% for the first, 0.72% for the second.

First: C[C@H](Cc1ccc(OCCCOc2ccc(C[C@@H](C)NC[C@H](O)c3cccc(Cl)c3)cc2)cc1)NC[C@H](O)c1cccc(Cl)c1
Second: CCCc1cc(Cc2cnc(N)nc2N)ccc1OCCCCCC(=O)OCC
The IFI of the first is higher: 13.1% for the first, 2.16% for the second.

Work on `Cc1[nH]cnc1CSCCNC(=N)NCCCCCCCCNC(=N)NCCSCc1nc[nH]c1C` yielded an IFI of 3.76%.

For `O[C@@H](c1cc(C(F)(F)F)nc2c(C(F)(F)F)cccc12)[C@H]1CCCCN1`, the IFI was 5.8% and 5.07%.
